In all, about 110,000 compounds were measured (“z-score”: median about -0.1, highest 2% from about 2 on). The list shows a part of the results.

The results in this text go back to PubChem BioAssay AID488969 (Vanderbilt High Throughput Screening Facility, 2010).

This test concerns the target Metabotropic glutamate receptor 8 (Rattus norvegicus) (UniProt P70579). As to the kind of experiment: rat mGluR8 modulators via GIRK flux, primary screen, cell-based, thallium flux, HTS (AID 488969). Conditions: HEK293 rat mGluR8, GIRK (G protein-gated inwardly rectifying potassium channel) thallium flux, FluoZin2; at 10 µM; stronger effect = higher value; submaximal glutamate (EC20) added with thallium.
UniProt P70579, sequence (P70579 whole entry, looked up): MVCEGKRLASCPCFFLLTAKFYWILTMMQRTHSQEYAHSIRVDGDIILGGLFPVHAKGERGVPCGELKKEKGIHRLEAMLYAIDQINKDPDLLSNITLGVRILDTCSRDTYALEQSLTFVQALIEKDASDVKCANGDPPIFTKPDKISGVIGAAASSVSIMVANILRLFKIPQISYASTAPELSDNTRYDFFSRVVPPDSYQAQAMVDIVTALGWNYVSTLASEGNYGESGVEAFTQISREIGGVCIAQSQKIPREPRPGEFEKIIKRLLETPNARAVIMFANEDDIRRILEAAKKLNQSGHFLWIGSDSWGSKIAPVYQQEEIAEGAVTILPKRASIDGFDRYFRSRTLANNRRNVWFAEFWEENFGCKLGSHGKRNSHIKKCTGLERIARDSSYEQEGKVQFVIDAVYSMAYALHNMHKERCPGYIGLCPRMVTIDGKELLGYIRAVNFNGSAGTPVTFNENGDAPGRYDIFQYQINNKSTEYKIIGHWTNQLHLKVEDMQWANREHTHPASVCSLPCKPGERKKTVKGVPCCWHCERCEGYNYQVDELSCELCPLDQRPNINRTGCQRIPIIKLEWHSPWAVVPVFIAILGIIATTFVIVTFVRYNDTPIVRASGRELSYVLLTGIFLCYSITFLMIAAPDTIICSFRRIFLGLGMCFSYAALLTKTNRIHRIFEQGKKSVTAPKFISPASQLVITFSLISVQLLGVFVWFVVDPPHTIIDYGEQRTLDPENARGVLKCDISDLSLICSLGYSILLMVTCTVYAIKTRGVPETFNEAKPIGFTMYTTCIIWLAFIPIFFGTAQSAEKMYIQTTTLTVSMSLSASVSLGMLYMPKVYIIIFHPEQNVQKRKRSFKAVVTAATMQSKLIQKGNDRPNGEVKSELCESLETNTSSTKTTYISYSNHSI
Regarding `CCOC(=O)CSC1=C(C#N)C(=O)NC2(CCCCC2)S1`, the z-score was -0.247.
Regarding `N=c1c2c(-c3ccccc3)c(-c3ccccc3)n(Cc3ccco3)c2ncn1CCO`, the z-score is 0.759.
`C1=CC2CC1CC2CNCc1ccco1` (stereo unspecified) registered a z-score of 0.0275.
With `O=[N+]([O-])c1cccc(/C=N/Nc2cc(Cl)nc(-c3ccccc3)n2)c1`, the z-score was -0.108.
As for `COc1ccc(Nc2cc(C(=O)NCCCN3CCOCC3)c3ccccc3n2)c(OC)c1`, the z-score came to 0.191.
In turn, `CCc1ccc(N2CC(C(=O)Nc3ccc(C)c(S(=O)(=O)N4CCOCC4)c3)CC2=O)cc1` (stereo unspecified) registered a z-score of 0.319.
`CCOC(=O)c1cnc(SCc2cccc3ccccc23)nc1N` gave a z-score of -0.552.
Consider `CS(=O)(=O)NN1C(=O)c2ccccc2NC1c1cccc2cccnc12` (stereo unspecified), for which the z-score stood at 0.0807.
In turn, `COc1ccc(C(=O)Nc2cccc(-c3cnc4ccccc4n3)c2)cc1` yielded a z-score of 0.0862.
Take `Cc1cc(OC(=O)c2ccc(Cl)cc2Cl)nc(C)n1`: the z-score was -1.35.
`CCCCNC(=O)C1CCN(S(=O)(=O)c2c(C)noc2/C=C\c2ccc(OC)cc2)CC1` returned a z-score of -0.000832.
Take `COc1ccc(C(=O)Nc2cccc(-c3nc4ncccc4o3)c2C)cc1OC`: the z-score worked out at 0.116.
In the case of `CCOc1ccc(N(CC(=O)OC)S(=O)(=O)c2ccc(OC)c(OC)c2)cc1`, the z-score came to 0.0607.
In the case of `CCOC(=O)C1=C(C)Nc2nc(SCC)nn2C1c1ccc(OC)cc1` (stereo unspecified) it was -0.135; in that of `COc1ccc(CN2CCN(c3ccc(F)cc3)CC2)c(OC)c1OC`, -0.227.
The compound `Cc1c(NC(=O)C2Cc3ccccc3CN2C(=O)c2ccco2)c(=O)n(-c2ccccc2)n1C` (stereo unspecified) came in with a z-score of 0.163.
The result for `CCCc1nc(NCc2ccccc2)c(C#N)c2c1CCCC2` reads -0.119; that for `CCn1c(COc2ccc(C)cc2)nnc1SCc1nc2ccccc2[nH]1`, -0.0293; that for `C/C=C/c1ccc(OCCn2cncn2)c(OC)c1`, -0.203.
On to `CCn1cc(CNC(=O)/C=C/c2ccc([N+](=O)[O-])cc2)c(C)n1`, for which the z-score was -0.204.
The compound `CCC(=O)N1CCc2cc(S(=O)(=O)N3CCc4ccccc43)ccc21` came in with a z-score of -0.163.
For the compound `Cc1cccc(-c2cc(C(=O)N3CCCc4ccccc43)c3ccccc3n2)c1`, the z-score was -0.00153.
The compound `CCC1(CC)Cc2ccccc2C(CC(=O)N2CCOCC2)=N1` yielded a z-score of -0.156.
The compound `Cc1ccc2c3c(c(SCC(=O)Nc4nccs4)nc2c1)CCCC3` showed a z-score of 0.493.
`Cc1ccc(S(=O)(=O)N2CCOCC2)cc1C(=O)NCCN1C(=O)S/C(=C\c2ccccc2Cl)C1=O` showed a z-score of 0.000791.
Regarding `COc1ccc(C(=O)NC(CO)c2nnc(SCc3ccc(Cl)c(Cl)c3)n2C)cc1` (stereo unspecified), the z-score was 0.242.
As to `CCCS(=O)(=O)C(=C1NCCO1)S(=O)(=O)CCC`, the z-score was -0.0817.
As for `O=C(NC1CCCCC1)C1CCCN(S(=O)(=O)c2cccs2)C1` (stereo unspecified), the z-score is -0.234.
The result for `CC(NS(=O)(=O)c1ccc2c(c1)OCCCO2)C(=O)O` (stereo unspecified) reads 0.595; that for `O=c1cc(CN2CCN(S(=O)(=O)/C=C/c3ccccc3)CC2)c2ccc(O)cc2o1`, -0.179; that for `N#CCC(=O)Nc1sc2c(c1C(N)=O)CCCC2`, -0.0548.
As to `Cc1nn(CC(=O)NCCN2CCOCC2)c(C)c1[N+](=O)[O-]`, the z-score is -0.415.
Regarding `CCOc1ccc(-c2nn(-c3ccccc3)cc2/C=C2\SC(N)=NC2=O)cc1C`, the z-score was -0.255.
The result for `Cn1c(SCC(=O)N2CCN(S(=O)(=O)c3ccc(Cl)cc3)CC2)nc2ccccc21` reads -0.0808; that for `Cc1cc(C)n(-c2nc(NC(C)(C)C)nc(NC(C)(C)C)n2)n1`, 0.00607.
As to `CCNC(=S)NNC(=O)c1cc(-c2cc(C)ccc2C)nc2ccccc12`, the z-score was -0.78.
`Cc1ccc(NC(=S)N2CCn3cccc3C2c2cccnc2)cc1` (stereo unspecified): the z-score was -0.119.
Turning to `C=CCN1C(=O)N/C(=C/c2ccc(C)o2)C1=O`, the z-score was -0.164.
In turn, `COc1cccc(C2C3CN(C)CC=C3C(C#N)=C(N)C2(C#N)C#N)c1OC` (stereo unspecified) registered a z-score of -0.444.
`O=C(OCc1c(Cl)nc2sccn12)c1cc2c(s1)CCCC2` registered a z-score of 0.322.
For `COc1ccccc1NCCC#N`, the z-score came to 0.226.
As to `O=C(COC(=O)c1cccnc1Nc1ccccc1F)NCc1ccc2c(c1)OCO2`, the z-score was -0.0875.
With `COc1ccc(N2CCN(CCCNC(=O)Nc3ccccc3)CC2)cc1`, the z-score came to 0.121.
The result for `O=C(Nc1ccc2c(c1)OCO2)OCc1ccccc1` reads 0.897; that for `CCOC(=O)C1=C(C)Nc2nnnn2C1c1cccnc1` (stereo unspecified), 0.349.
In the case of `O=C(CN1CCOCC1)Nc1c2c(nc3c1CCC3)CCC2` it was 0.117.
For `Clc1ccc(CNCCC2=CCCCC2)cc1`, the z-score is 2.27.
For the compound `Cc1cc(C)c2nc(N3CCCN(C(=O)c4cnccn4)CC3)c(C#N)cc2c1`, the z-score was -0.232.
For `CC(=O)c1ccc(NC(=O)Nc2cccc(Cl)c2)cc1`, the z-score is 1.07.
Consider `N#Cc1cn(CC(=O)N2CCc3ccccc3C2)c2ccccc12`, for which the z-score is -0.372.
In turn, `Cn1c(CN2CCN(c3ccc(Cl)cc3)CC2)nc2ccccc21` had a z-score of -0.229.
With `Cn1c(=O)c2[nH]c(N3CCOCC3)nc2n(-c2ccccc2)c1=O`, the z-score was -0.487.
In the case of `COc1ccccc1NS(=O)(=O)c1ccc(N/N=C/c2c(C)nn(-c3ccccc3)c2N2CCCC2)c([N+](=O)[O-])c1` it was -0.652; in that of `COCCOc1ccc(C(F)(F)F)cc1NC(=O)c1ccccc1F`, 0.379; in that of `COC(=O)[C@@H](NC(=O)Nc1cccc(Br)c1)C(C)C`, -0.134.
As to `O=C(N/N=C/C1CCCCC1)c1cc(Cl)ccc1O`, the z-score was determined as 0.618.
Compound `Cc1ccccc1OCCCN1C(=O)C(=O)c2cccc(C)c21` had a z-score of 0.12.
The compound `CCOC(=O)NC(=O)/C(C#N)=N/Nc1c(F)cccc1F` returned a z-score of -0.809.
On to `CCc1ccc(S(=O)(=O)Nc2ccc(-c3nc4cccnc4s3)cc2)s1`, for which the z-score was 0.709.
Compound `O=C(NCc1ccc(F)cc1)c1noc2c1CCCC2` displayed a z-score of -1.4.
In turn, `Cc1cccc(C)c1NC(=O)CN(C)c1ccc(C(F)(F)F)cn1` came in with a z-score of -0.19.
On to `COc1ccc(-n2c(O)cnc2Nc2nc(C)cc(C)n2)cc1OC`, for which the z-score was 0.0663.
The result for `Cc1sc(NC(=O)/C=C/c2ccco2)c(C(=O)OC(C)C)c1C` reads -0.532; that for `COc1cccc2c1C(=O)C=C(C)C2=O`, -0.1; that for `O=C(O)CCN1C(=O)c2ccc(NC(=O)c3cccs3)cc2C1=O`, -0.0966.
With `Cc1nc2nc3c(c(=O)n2[nH]1)CCCC3`, the z-score was -0.181.
The result for `Cc1ccc(CN(C(=O)Cn2nnc3ccccc32)C(C(=O)NCc2ccco2)c2ccc(C)o2)cc1` (stereo unspecified) reads 0.0419; that for `Cc1cc2n(n1)C(c1cccs1)Nc1ccccc1-2` (stereo unspecified), -0.0377; that for `O=C(c1ccc(COc2ccccc2[N+](=O)[O-])o1)N1CCCCCC1`, -0.317.
Turning to `CN(CC(=O)NCCC1=CCCCC1)S(=O)(=O)c1ccc2c(c1)CCC(=O)N2`, the z-score was -0.698.
On to `O=C(Nc1ccc(O)cc1)c1ccc2c(c1)C(=O)N(Cc1ccco1)C2=O`, for which the z-score was -0.323.
